Assay results published in PubChem BioAssay AID504832 (National Center for Advancing Translational Sciences (NCATS), 2011).
In all, about 310,000 compounds went through this assay and about 18,000 (5.8%) were called active. Inconclusive results, whose numbers are uncertain, are shown with a selection of clear calls. The call rests on the fitted dose curve; in most records, active means well fitted inhibition curve with a large enough effect; inconclusive means small, poorly fitted or top-dose-only effect, or another doubt; inactive means no such curve, though single readings can be large or run the other way. Potencies of inconclusive entries are left out as doubtful fits.

assay: Primary qHTS for delayed death inhibitors of the malarial parasite plastid, 48 hour incubation; settings: P. falciparum luciferase growth in erythrocytes; series mostly up to 28.7 µM; activity change, negative = inhibition: at the top concentration
Method in brief: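 Erythrocytes infected with P. falciparum carrying an integrated firefly luciferase reporter (2% hematocrit, 0.1% parasitemia final) were exposed to compounds in RPMI 1640 with 0.5% Albumax at 37 C, 5% CO2. Growth inhibition was scored as reduced luminescence.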
On the % scale 0 is the no-effect control and ±100 the full control effect; potency means the concentration at half of the fitted maximal effect; tags describe the fitted curve by direction and shape.

Structure (SMILES)	Potency	activity change, negative = inhibition
COC(=O)COn1c(-n2nc(C)cc2C)nc2ccccc2c1=O	active: 9.28 µM	
C=CCN1C(=O)c2ccc(C(=O)N(C)CC(=O)Nc3ccc(OCC)c(OCC)c3)cc2C1=O		inactive: -12.5%
COc1cc(OC)nc(NC(=S)NC(=O)c2ccccc2)n1	inconclusive [inhibitor, single point]	
CCOc1ccc(CCNC(=O)COC(=O)/C=C/c2ccc(C)o2)cc1OCC	active: 13.1 µM	
CCOC(=O)c1c(NC(=O)c2ccc(N3CCOCC3)c([N+](=O)[O-])c2)sc(C)c1C	inconclusive [inhibitor, full curve, poor fit]	
O=C(CN1c2cccc3cccc(c23)S1(=O)=O)Nc1cccc(S(=O)(=O)N2CCOCC2)c1	inconclusive [inhibitor, partial curve]	
CCOC(=O)C1=C(COC(=O)[C@H](C)NS(=O)(=O)c2ccccc2F)NC(=O)NC1C (stereo partly specified)		inactive: -17.8%
Cc1ccc(N=Nc2ccc(O)c3ncccc23)cc1C	inconclusive [inhibitor, partial curve]	
COc1cccc(COC(=O)C2CCN(C(=O)c3ccc(F)cc3)CC2)c1OC	inconclusive [inhibitor, single point]	
CCN(C(=O)Cn1c(=O)n(Cc2ccccc2)c(=O)c2ccccc21)c1cccc(C)c1	inconclusive [inhibitor, single point]	
COc1cc(CCCN2C(=S)NC[C@@H]2CC2CCCCC2)cc(OC)c1OC	inconclusive [inhibitor, single point]	
COc1ccc(CCn2c(C)cc(C(=O)CSc3nc(N)cc(=O)[nH]3)c2C)cc1	inconclusive [inhibitor, single point]	
CC1(CCc2ccccc2)NC(=O)N(CC(=O)N2CC(=O)Nc3ccccc32)C1=O (stereo unspecified)	inconclusive [inhibitor, partial curve, poor fit]	
Cc1c(C)n(C)c2ccc(C(=O)NCCCN3CCCC3)cc12	inconclusive [inhibitor, single point]	
COc1ccc(-n2cc(CNCc3cccnc3)c(-c3cccc(F)c3)n2)cc1	active: 13.1 µM	
O=C1/C(=C/c2cccs2)SC(=S)N1N1CCOCC1		inactive: 103%
COc1ccccc1N(CC(O)Cn1c(C)nc2ccccc21)S(=O)(=O)c1ccccc1 (stereo unspecified)	inconclusive [inhibitor, single point]	
Cc1cc(NC(=NC2CC2)c2ccccc2F)n(-c2ccccc2)n1	inconclusive [inhibitor, full curve, poor fit]	
COc1ccccc1/C=C1\Oc2cc(OC(=O)N3CCOCC3)ccc2C1=O		inactive: 3.57%
CC(C)(C)OC(=O)[C@H](Cc1ccccc1)NC(=O)c1[nH]cnc1C(=O)Nc1ccc(Cl)cc1	inconclusive [inhibitor, partial curve]	
COc1cc(/C=C/C(=O)NC(=O)c2ccccc2O)ccc1O	inconclusive [inhibitor, single point]	

Structure (SMILES)	Potency	activity change, negative = inhibition
CCc1nc(N2CCC3(CC2)OCCO3)c2nnn(Cc3ccccc3Cl)c2n1	inconclusive [inhibitor, partial curve, poor fit]	
CCSc1nc2sc3c(c2c(=O)n1-c1ccc(OC)cc1)CCN(C)C3	inconclusive [inhibitor, full curve]	
C#CCOCCOCCOCCNc1nc(N2CCOCC2)nc(N2CCN(C(=O)[C@H](Cc3ccc(O)cc3)n3cc([C@@H](N)CC(C)C)nn3)CC2)n1	active: 5.22 µM	
COc1ccc(OCC(=O)Nc2cc(C)c(Cl)cc2OC)c([N+](=O)[O-])c1		inactive: 36%
Fc1cccc(CSc2nc3ncc(Cl)cc3[nH]2)c1	inconclusive [inhibitor, single point]	
COc1ccccc1C(=O)Nc1ccc(S(=O)(=O)N2CCC(C)CC2)cc1	inconclusive [inhibitor, partial curve]	
Cc1c(C)c2ccc(OCC(=O)NCCCN3CCCC3=O)cc2oc1=O		inactive: -8.14%
Cc1[nH]c2ccccc2c1C(=O)C(C)Sc1nnc(C2CC2)o1 (stereo unspecified)	active: 3.7 µM	
CN(C)c1ccc(/C=N/NC(=O)C(O)(c2ccccc2)c2ccccc2)o1	inconclusive [inhibitor, single point]	
CCOC(=O)C1=C(C)N=c2s/c(=C/c3ccco3)c(=O)n2C1c1cccc(OC)c1 (stereo unspecified)	inconclusive [inhibitor, partial curve, poor fit]	
Cc1cccc(-c2nnn(C/C(N)=N/O)n2)c1	inconclusive [inhibitor, partial curve]	
Cc1cccn2c(=O)c3c(nc12)N1CCCCCC1C1(C3)C(=O)N(C)C(=O)N(C)C1=O (stereo unspecified)	inconclusive [inhibitor, full curve, poor fit]	
Cc1ccccc1-c1nc(-c2ccc(NC(=O)c3cccs3)cc2)no1	inconclusive [inhibitor, partial curve]	
Cc1nc([N+](=O)[O-])c(Br)n1CC(=O)c1ccc(F)cc1	inconclusive [inhibitor, single point]	
CC1=NN(C(=O)COc2ccccc2C)C(O)(c2ccc(Cl)cc2)C1 (stereo unspecified)		inactive: 9.74%
C=CCn1c(SCC(=O)c2ccc(O)c(O)c2)nnc1-c1ccc(C)cc1	inconclusive [inhibitor, single point]	
COc1ccc(-c2noc3c2-c2nc(-c4ccc(Cl)cc4)sc2CC3)cc1	inconclusive [inhibitor, partial curve]	
Cn1c(SCC(=O)N(Cc2ccccc2)C(C)(C)C)nc2ccccc21	inconclusive [inhibitor, single point]	
CC1CC(C)(C)CC2(C1)NC(=O)N(CC(=O)Nc1nccs1)C2=O (stereo unspecified)	inconclusive [inhibitor, partial curve, poor fit]	
COc1cc(C(=O)N/N=C(\c2ccccc2)c2ccccn2)cc(OC)c1OC	active: 0.928 µM	
